Assay results taken from PubChem BioAssay AID360 (National Center for Advancing Translational Sciences (NCATS), 2006).
The whole screen tested about 48,000 compounds, of which about 550 (1.1%) were called active. About 4% were inconclusive and are not listed. No stated cut-off is given here; in the data, active means potency below about 15 µM; inconclusive means mostly about 16 µM to 33 µM; inactive means weaker than that. Some of the results follow.

Biological target: Lysosomal acid glucosylceramidase (Homo sapiens) (UniProt P04062)
Chain of UniProt P04062 (P04062 whole entry, looked up): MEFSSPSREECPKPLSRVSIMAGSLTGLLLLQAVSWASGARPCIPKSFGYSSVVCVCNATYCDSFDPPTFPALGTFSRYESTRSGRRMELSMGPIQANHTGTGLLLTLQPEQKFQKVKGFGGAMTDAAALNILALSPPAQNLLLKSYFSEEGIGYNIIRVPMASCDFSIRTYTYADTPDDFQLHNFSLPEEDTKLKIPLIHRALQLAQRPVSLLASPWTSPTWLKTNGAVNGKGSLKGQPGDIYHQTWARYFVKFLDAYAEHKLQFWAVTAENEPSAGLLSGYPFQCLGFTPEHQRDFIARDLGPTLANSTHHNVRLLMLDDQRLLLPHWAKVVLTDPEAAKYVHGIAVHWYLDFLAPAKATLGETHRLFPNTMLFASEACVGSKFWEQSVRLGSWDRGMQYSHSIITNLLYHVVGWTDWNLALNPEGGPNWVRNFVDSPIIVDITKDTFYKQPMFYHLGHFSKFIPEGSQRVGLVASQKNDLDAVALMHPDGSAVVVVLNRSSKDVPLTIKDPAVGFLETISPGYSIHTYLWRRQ
Assay: Glucocerebrosidase;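 further: the screen sought inhibitors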
Settings: purified enzyme, resorufin glucoside fluorescence (screen aimed at inhibitors), 20 min
Summary of the method: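 Normal human glucocerebrosidase (0.2 nM final) was assayed with resorufin β-D-glucopyranoside (30 uM final) in 50mM citric acid/KH2PO4, 10mM sodium taurocholate, 0.01% tween-20, pH 5.9. Compounds were titrated; fluorescence (Ex 548, Em 600) read after 20 min at RT.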
Potency means the concentration at half of the fitted maximal effect.

Potency, inactive:
Cc1ccc(NC(=O)CSc2nnc(-c3ccccn3)n2C)cc1 > 76.9 µM
CCc1ccc2c(CN(CC)Cc3nc4ccccc4c(=O)[nH]3)cc(=O)oc2c1 > 76.9 µM
COC(=O)c1ccc(CSc2nc3c(cnn3-c3ccc(Cl)cc3)c(=O)[nH]2)o1 > 76.9 µM
Cc1ccc(C)c(N(CC(N)=O)S(C)(=O)=O)c1 > 76.9 µM
CC(=O)Nc1cccc(Oc2cc(C#N)c(C#N)cc2N2CCOCC2)c1 > 76.9 µM
COc1cc(Br)c(S(=O)(=O)Nc2c(C)n(C)n(-c3ccccc3)c2=O)cc1OC > 76.9 µM
C=CCn1c(SCC(=O)NC(=O)NC2CCCC2)nnc1C1CCCCC1 > 76.9 µM
COc1nc(Nc2ccc(O)cc2)nc(OC(C(F)(F)F)C(F)(F)F)n1 > 76.9 µM
COc1ccc(S(=O)(=O)CCC(=O)NC2CCCCC2)cc1 > 76.9 µM
O=C(NC(=O)N1CCN(c2ccccc2F)CC1)c1ccccc1 > 76.9 µM
Cc1cccc2cc(C(c3nnnn3CC3CCCO3)N3CCCC4(CCCCC4)C3)c(=O)[nH]c12 (configuration not stated) > 76.9 µM
O=[n+]1cc(-c2ccccc2)n([O-])c2c1CCC2 > 76.9 µM
Cc1cc(C(=O)Nc2c(C)nn(Cc3c(Cl)cccc3Cl)c2C)no1 > 76.9 µM
Cn1c(=O)c2c(nc(-n3ccnc3)n2Cc2ccccc2)n(C)c1=O > 76.9 µM
COC(=O)c1ccc2ccn(CC(=O)NC(C)C)c2c1 > 76.9 µM
Cc1nn(C)c(C)c1S(=O)(=O)N1CCCC(C(=O)NC2CCCCC2)C1 (configuration not stated) > 76.9 µM
CC(C)CC1(C)NC(=O)NC1=O (configuration not stated) > 76.9 µM
O=C(CCN1C(=O)C2C3C=CC(C3)C2C1=O)Nc1nccs1 (configuration not stated) > 76.9 µM
O=C(O)CCc1ccc(-c2ccc(Br)cc2)n1Cc1ccco1 > 76.9 µM
O=C(NCC1CCNCC1)c1ccncc1 > 76.9 µM
CCOc1ccc(CCNC(=O)CN2CCN(Cc3ccc(F)cc3)C2=O)cc1OCC > 76.9 µM
Nc1nnc(SCCN2C(=O)c3ccccc3S2(=O)=O)s1 > 76.9 µM
CCOC(=O)c1cc(-c2cc3ccccc3o2)nc2c1c(=O)[nH]c(=O)n2CCOC > 76.9 µM
CC(=O)Nc1c2c3c(cccc3n(C)c1=O)C(=O)c1ccccc1-2 > 76.9 µM
COc1ccc(S(=O)(=O)N2CCC(C(=O)NC3CC3)CC2)cc1Cl > 76.9 µM
CCc1ccc2nc3c(c(C(=O)O)c2c1)CCC3 > 76.9 µM
O=C(O)CSc1nc2c(c(=O)[nH]1)CCCC2 > 76.9 µM
COc1ccc(CCNc2ncnc3c2oc2ccccc23)cc1OC > 76.9 µM
CC(=O)CCc1ccc(OCCCCn2cncn2)cc1 > 76.9 µM
CS(=O)(=O)N(CC(=O)N1CCOCC1)c1ccc2c3c(cccc13)CC2 > 76.9 µM
O=C1Cn2c(nc3ccccc32)-c2ccccc2N1 > 76.9 µM
CCOC(=O)c1cc(NC(=O)c2c(C)noc2C)cc(C(=O)OCC)c1 > 76.9 µM
O=C(Nc1ccc(-c2nc3ccccc3o2)cc1)C1CCCO1 (configuration not stated) > 76.9 µM
COc1ccc(CNC(=O)c2cc(-c3ccc(OC)c(OC)c3)on2)cc1 > 76.9 µM
COc1ccc(-c2nnn(CC(=O)c3c[nH]c4ccccc34)n2)cc1OC > 76.9 µM
Cc1ccc2cc(CN(Cc3ccco3)C(=O)c3cccs3)c(=O)[nH]c2c1 > 76.9 µM
O=C(Nc1cnn(Cc2ccc(Cl)cc2)c1)c1cnccn1 > 76.9 µM
CCC(NC(=O)Cn1cnc2c(=O)n(C)c(=O)n(C)c21)c1ccccc1 (configuration not stated) > 76.9 µM
CCCn1c(-c2cccs2)nc2ccccc21 > 76.9 µM
O=S(=O)(c1cccc2nsnc12)N1CCCC1 > 76.9 µM
COCC(C)NCc1ccccc1C (configuration not stated) > 76.9 µM
Cn1cnnc1SCC(=O)Nc1ccccc1C(=O)NC1CCCC1 > 76.9 µM
COC(=O)c1nonc1NCn1nnc2ccccc21 > 76.9 µM
Cc1cc(C)n(C(=O)c2ccc(C)c(S(=O)(=O)N3CCCC3)c2)n1 > 76.9 µM
COC(=O)c1sccc1NC(=O)CSc1nnnn1-c1ccccc1F > 76.9 µM
CCOc1ccc(N2C(=O)C3CCCN3C2=O)cc1 (configuration not stated) > 76.9 µM
COc1cc(C(O)P(=O)(OC(C)C)c2ccc(N(C)C)cc2)cc(OC)c1OC (configuration not stated) > 76.9 µM
